# Experimental data as given in the supplement of paper PMC8183993.
# Counter-ions that a name gives are not always drawn. ± gives the standard deviation of the averaged measurements. Over roughly 3,100 compounds, “mean cytoplasmic OPP incorporation (global translation) relative to DMSO” has its median near 100; the lowest 2% begin near 56. This is one part of the list.
# Tested on: U2OS
# Assay: mean cytoplasmic OPP incorporation (global translation) relative to DMSO (% of DMSO); higher = more protein synthesis
# Settings: 10 µM; 24 h
# Procedure: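 Primary image-based screen in U2OS cells: compounds at 10 uM for 24 h, then a 1 h o-propargyl-puromycin (OPP) pulse, click labelling, and high-throughput microscopy. Mean cytoplasmic OPP intensity and nuclei count were normalised to DMSO wells within each plate (DMSO = 100) and averaged over triplicate plates.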
row,SMILES,mean cytoplasmic OPP incorporation
1,CC(=O)N(O)CCCCCNC(=O)CCC(=O)N(O)CCCCCNC(=O)CCC(=O)N(O)CCCCCN [Deferoxamine mesylate],90.6
2,NCCCCNCCCN [Spermidine],101
3,NCCCCNCCCN [Spermidine trihydrochloride],101
4,Nc1ncn([C@H]2C[C@H](O)[C@@H](CO)O2)c(=O)n1 [Decitabine],97.5
5,CC(C)(C(=O)c1cccnc1)c1cccnc1 [Metyrapone],109
6,O=C(Cc1ccc(-c2ccc(OCCN3CCOCC3)cc2)cn1)NCc1ccccc1,90.8
7,CN1CC(=O)NC1=N [Creatinine],102
8,CC(=O)Nc1ccc(NC(=S)NC(=O)c2ccc(C(C)(C)C)cc2)cc1 [Tenovin-1],76.3
9,O=c1cc(-c2ccc(O)c(O)c2)oc2cc(O)cc(O)c12 [Luteolin],92
10,CCOC(=O)[C@]12CC1/C(=N\O)c1ccccc1O2 (some centres not stated),95.4
11,CN1CCN(C2=Cc3ccccc3Oc3ccc(Cl)cc32)CC1,106
12,C[C@H](NC(=O)[C@@H](O)c1cc(F)cc(F)c1)C(=O)N[C@@H]1C(=O)N(C)c2ccccc2-c2ccccc21,108
13,CN1C2=CC(=O)/C(=N\NC(N)=O)C=C2CC1S(=O)(=O)O (configuration not stated) [Carbazochrome sodium sulfonate],116
14,CSCC[C@H](NC=O)C(=O)N[C@@H](CC(=O)O)C(=O)NCC(=O)N[C@@H](CS)C(=O)N[C@@H](CCC(=O)O)C(=O)N[C@@H](CC(C)C)C(=O)O,103
15,CCC(Cc1c(I)cc(I)c(N)c1I)C(=O)O (configuration not stated) [Iopanoic acid],107
16,CCC(NC(C)C)C(O)c1ccc(O)c(O)c1 (configuration not stated) [Isoetharine mesylate salt],97.6
17,CN1CCc2cccc3c2[C@H]1Cc1ccc(O)c(O)c1-3 [(R)-(-)-Apomorphine hydrochloride],100
18,CN1CCc2cccc3c2[C@H]1Cc1ccc(O)c(O)c1-3 [R(-) Apomorphine hydrochloride hemihydrate],102
19,CC(=O)OCCNC(=O)c1cccnc1 [N-[2-(Acetoxy)ethyl]-3-pyridinecarboxamide],98.6

row,SMILES,mean cytoplasmic OPP incorporation
1,CNC(CC(=O)O)C(=O)O [NMDA (N-Methyl-D-aspartic acid)],93.1
2,O=c1cc(N2CCOCC2)oc2c1ccc1ccccc12,96.7
3,CCOC(=O)C(C)(C)Oc1ccc(Cl)cc1 [Clofibrate],93
4,CC(C)NC[C@H](O)COc1ccc(CC(N)=O)cc1 [S-(-)-Atenolol],100
5,CC(C)NC[C@H](O)COc1ccc(CC(N)=O)cc1 [(S)-(-)-Atenolol],104
6,CO[C@@]1(NC(=O)CSCC#N)C(=O)N2C(C(=O)O)=C(CSc3nnnn3C)CS[C@@H]21 [Cefmetazole sodium salt],105
7,COc1ccc2[nH]c(I)c(CCNC(C)=O)c2c1 [2-Iodomelatonin],99.4
8,C[C@@H]1[C@H](O)[C@@H](C)/C=C/C=C/C=C/C=C/C=C/C=C/C=C/[C@H](O[C@@H]2O[C@H](C)[C@@H](O)[C@H](N)[C@@H]2O)C[C@@H]2O[C@](O)(C[C@@H](O)C[C@@H](O)[C@H](O)CC[C@@H](O)C[C@@H](O)CC(=O)O[C@H]1C)C[C@H](O)[C@H]2C(=O)O [Amphotericin B (Abelcet)],104
9,C[C@@H]1[C@H](O)[C@@H](C)/C=C/C=C/C=C/C=C/C=C/C=C/C=C/[C@H](O[C@@H]2O[C@H](C)[C@@H](O)[C@H](N)[C@@H]2O)C[C@@H]2O[C@](O)(C[C@@H](O)C[C@@H](O)[C@H](O)CC[C@@H](O)C[C@@H](O)CC(=O)O[C@H]1C)C[C@H](O)[C@H]2C(=O)O [Amphotericin B],98.8
10,CC[C@H](CC[C@@H](C)[C@H]1CC[C@H]2[C@@H]3CC=C4C[C@@H](O)CC[C@]4(C)[C@H]3CC[C@]12C)C(C)C [?-Sitosterol],97.3
11,O=C(O)CC[C@H]1CC[C@@](c2cc(F)ccc2F)(S(=O)(=O)c2ccc(Cl)cc2)CC1,107
12,"C/C=C1\NC(=O)[C@H]2CSSCC/C=C/[C@H](CC(=O)N[C@H](C(C)C)C(=O)N2)OC(=O)[C@H](C(C)C)NC1=O [Romidepsin (FK228 ,depsipeptide)]",62.7
13,COc1ccc2c(c1)N(C[C@H](C)CN(C)C)c1ccccc1S2 [Methotrimeprazine maleat salt],105
14,CCCN(CCC)C(=O)C(CCC(=O)O)NC(=O)c1ccccc1 (configuration not stated) [Proglumide],105
15,CCN1C(=O)NC(c2ccccc2)C1=O (configuration not stated) [Ethotoin],102
16,Nc1nc(N)c2nc(-c3cccc(O)c3)cnc2n1,88.9 ± 1.7
17,CN1CCC(=C2c3ccccc3CC(=O)c3sccc32)CC1 [Ketotifen fumarate],109 ± 9.3
18,Cc1nnc(-c2ccc3occ(-c4ccc([S+](C)[O-])cc4)c3c2)o1 (configuration not stated),105
